According to the RNAGym collection of RNA variant scans (doi:10.7554/elife.90254):
Read counts are not given, so values of variants with three or more changes are uncertain.

B1: LINE1-mini (parent)
chain: GGCAGAGCUCAACACAGCGUGGCAAAGUGGCUGUGGCUAGACUGCC

Variants of: B1
Experiment: self-cleavage, relative activity (ratio to wild type); higher = more cleavage; in vitro, sequencing; the parent is a self-cleaving ribozyme

**Q.** For GGCAGAGCUCAACACAUCGUGGCAAAGUGGCUGUCGCUAGACUUCC, which self-cleavage is on record?
**A.** 0.07

**Q.** Which self-cleavage does the source give for GGCAGAGCUCAACACAUCGUGUAAAAAUGGCUGUGGCUAAACUGAC here?
**A.** 0.38

**Q.** With GGCAGAGCUCAACACAUCAUGGCAAAGUGGCUGUGGCUGGACUGCC as the variant, how does the self-cleavage read?
**A.** 0.09

**Q.** Which self-cleavage does the source give for GGCAGAGCUCAACACAUCGUGGCAAGGUGGCUGUGGCUAGACUGUC here?
**A.** 0.06

**Q.** For GGCAGAGCUCAACACAUCGUGGCAAAGUGGCUGUGGAUAGACUGCA, which self-cleavage is on record?
**A.** 0.03

**Q.** With GGCAGAGCUCAACACAUCGUGGCAAAGUGGCUAUGGCUAGACUGGC as the variant, how does the self-cleavage read?
**A.** 0.04

**Q.** Which self-cleavage does the source give for GGCAGAGCUCAACACAUCGUUGCAAAUUGGCUGUGGUUAGACUGCC here?
**A.** 0.04

**Q.** With GGCAGAGCUCAACACAUCGUCGCAAAGUGACUGUGGUUAGACUGCC as the variant, how does the self-cleavage read?
**A.** 0.01

**Q.** Which self-cleavage does the source give for GGCAGAGCUCAACACAUCGUGGCUAGGUGGCUGUGGCUAGACUGCC here?
**A.** 0.03

**Q.** Which self-cleavage does the source give for GGCAGAGCUCAACACAUUAUGGCAAAGUGGCUGGGGCUACACUGCC here?
**A.** 0.01

**Q.** With GGCAGAGCUCAACACAUUUUGGCAAAAUGGCUGUGUCUAGACUGCC as the variant, how does the self-cleavage read?
**A.** 0.01

**Q.** With GGCAGAGCUCAACACAUCGUGGGAAAGUGGCUGUGGCUAGACUGCA as the variant, how does the self-cleavage read?
**A.** 0.19

**Q.** For GGCAGAGCUCAACACAUCGUAGCAAGGUGUCUGUGGCUAGACAGCC, which self-cleavage is on record?
**A.** 0.08

**Q.** With GGCAGAGCUCAACACAUCGUGGCAAAGUGGGUGUCGCUAGACUGCC as the variant, how does the self-cleavage read?
**A.** 0.02

**Q.** Which self-cleavage does the source give for GGCAGAGCUCAACACAUCGUGGUAAAGUGGCCGUGGCUAGACUGCC here?
**A.** 0.04

**Q.** For GGCAGAGCUCAACACAUGGUGGCAAAGUGGCUGUGGCUAUACUGCC, which self-cleavage is on record?
**A.** 0.02

**Q.** Which self-cleavage does the source give for GGCAGAGCUCAACACAUCGUGGCAGAGUGGCUGUAGCUAGACUGCC here?
**A.** 0.02

**Q.** With GGCAGAGCUCAACACAUCGUGCCAAAGUGGCUCCGGCUAGACUGCC as the variant, how does the self-cleavage read?
**A.** 0.02

**Q.** For GGCAGAGCUCAACACAUAGUGACAAAGUGGGUGUGGCUAGACUGCC, which self-cleavage is on record?
**A.** 0.4

**Q.** For GGCAGAGCUCAACACAUCGUGGCUAAGUGGCUGUGGCUAGACUGAC, which self-cleavage is on record?
**A.** 0.04

**Q.** Which self-cleavage does the source give for GGCAGAGCUCAACACAUCGUGGCAAAGUGGAUGUGGCUAAACUGCC here?
**A.** 0.07

**Q.** For GGCAGAGCUCAACACAUCGUGGCAACGUGCCUGUGGCUAGAUUGUC, which self-cleavage is on record?
**A.** 0.01

**Q.** Which self-cleavage does the source give for GGCAGAGCUCAACACAUCGUCGCAAAGUGGCGGUGGCUAGACUGCU here?
**A.** 0.02

**Q.** Which self-cleavage does the source give for GGCAGAGCUCAACACAUCGUGGCAAAGUGGCUGUCGCUAGAGUGCA here?
**A.** 0.01

**Q.** For GGCAGAGCUCAACACAUCGUGGCAAAGUGCAUGUGGCUAGACUGCC, which self-cleavage is on record?
**A.** 0.35

**Q.** Which self-cleavage does the source give for GGCAGAGCUCAACACAUCAUGGCAAAGUGGCUGUGGAUUGACUGCC here?
**A.** 0.08

**Q.** For GGCAGAGCUCAACACAUCGUGUCAAGGUGGCUAUGCCUAGACUGCC, which self-cleavage is on record?
**A.** 0.01

**Q.** With GGCAGAGCUCAACACAUCGUGGGAAAGUGGCUGUGGCUAUACUGCC as the variant, how does the self-cleavage read?
**A.** 0.03

**Q.** Which self-cleavage does the source give for GGCAGAGCUCAACACAUCCUGGCAAAGUGGCUGUGGCUAGUCUUCC here?
**A.** 0.06

**Q.** For GGCAGAGCUCAACACAUUGUGGCAAAGUGGCUGUGGCUAGAUUGCC, which self-cleavage is on record?
**A.** 0.03

**Q.** For GGCAGAGCUCAACACAUCGUGUCAAAUUGACUGUGGCCAGACUGCC, which self-cleavage is on record?
**A.** 0.83

**Q.** For GGCAGAGCUCAACACAUCGUGGCAUAGUGUGUGUGGCUAGACUGCC, which self-cleavage is on record?
**A.** 0.06

**Q.** With GGCAGAGCUCAACACAUCGUGGAAAAGUGGCUCUGUCUAGACUGCC as the variant, how does the self-cleavage read?
**A.** 0.03

**Q.** Which self-cleavage does the source give for GGCAGAGCUCAACACAUCGUUGCAAAGUGGCUGAGGCUAGACUGCC here?
**A.** 0.01

**Q.** For GGCAGAGCUCAACACAUCGUAGCAAAGUGGCUGUGGCUAGACUGCU, which self-cleavage is on record?
**A.** 0.2

**Q.** Which self-cleavage does the source give for GGCAGAGCUCAACACAUCGUGACAAAGUGGCUGUGGCUAGUCUGCG here?
**A.** 0.02

**Q.** With GGCAGAGCUCAACACAUCGUGGCAAGGUGGCUUUGGCAAGACUGCC as the variant, how does the self-cleavage read?
**A.** 0

**Q.** Which self-cleavage does the source give for GGCAGAGCUCAACACAUCGUGGCAAUGUAGCUGUGGCUAGAAUGCC here?
**A.** 0.05

**Q.** Which self-cleavage does the source give for GGCAGAGCUCAACACAUCGUAGCAACCUGGCUGUGGCUAGACUGCU here?
**A.** 0.05

**Q.** With GGCAGAGCUCAACACAUCGUGGCAAAUUGGCUGUGUCUAGACUGGC as the variant, how does the self-cleavage read?
**A.** 0.01

**Q.** For GGCAGAGCUCAACACAUGGUGACACACUGGCUGUGGUUAGACUGCC, which self-cleavage is on record?
**A.** 0.02

**Q.** With GGCAGAGCUCAACACAUCGUGGCAAAGUGACUGUGGCUAGACUGCA as the variant, how does the self-cleavage read?
**A.** 0.51

**Q.** Which self-cleavage does the source give for GGCAGAGCUCAACACAUCUUGGCAAAUUGGCUGUGGCUAGACUGCC here?
**A.** 0.04

**Q.** Which self-cleavage does the source give for GGCAGAGCUCAACACAUAGUGUCAAAGUGUCUGUGGCUAGACUGCC here?
**A.** 0.06

**Q.** With GGCAGAGCUCAACACAUCGUGGCAACGUGGCUGUUGCUAGACUGCC as the variant, how does the self-cleavage read?
**A.** 0.02

**Q.** With GGCAGAGCUCAACACAUCGUGACAGAGUGGCUGUGGCUAGACUGCC as the variant, how does the self-cleavage read?
**A.** 0.04

**Q.** For GGCAGAGCUCAACACAUCGUGGCAAAGUGGCUGUGCCCAGACUGCG, which self-cleavage is on record?
**A.** 0

**Q.** Which self-cleavage does the source give for GGCAGAGCUCAACACAUCGUGCCAAAGUCCCUGUGGCUAGACUGCC here?
**A.** 0.06

**Q.** Which self-cleavage does the source give for GGCAGAGCUCAACACAUCGUGGCAUAGUCGGUGUGGCUAGACUGCG here?
**A.** 0.71

**Q.** With GGCAGAGCUCAACACAUCGUGGCAAAUUGGCUAUGGCUAGACUGCC as the variant, how does the self-cleavage read?
**A.** 0.08

**Q.** For GGCAGAGCUCAACACAUCGUGGCAAAUUGGCUUUGGCUAGACUGCC, which self-cleavage is on record?
**A.** 0.02

**Q.** For GGCAGAGCUCAACACAUCGUGCCCAAGUGGCCGUGGCUAGACUGCC, which self-cleavage is on record?
**A.** 0.1

**Q.** Which self-cleavage does the source give for GGCAGAGCUCAACACAUCGUGGCAAAAUGGCUGUAGCUAGACUGCC here?
**A.** 0.06

**Q.** Which self-cleavage does the source give for GGCAGAGCUCAACACAUCAGGGCAAAGUGGCUGUGGCUAGACUGCC here?
**A.** 0.04

**Q.** With GGCAGAGCUCAACACAUCCUGGCAAAGUGGCUGUUGCUAGACUGCC as the variant, how does the self-cleavage read?
**A.** 0.04

**Q.** Which self-cleavage does the source give for GGCAGAGCUCAACACAUCGUGGCAAAGUGGUUGUGGCUAGACUACC here?
**A.** 0.03
